Data from ChEMBL document CHEMBL1201862, “PubChem BioAssay data set” (2004).

Tested on: NCI-H322M
Test: NCI-60 cell line screen, 48 h

Compound | GI50
CC1=CCC(O)C=CC(C)C(O)C(C)C=C(C)C(=O)c2c(O)c(C)cc3c2C(=O)C(N)=C(NC(=O)/C=C\C=C/C=CC(C)C(O)CC1=O)C3=O (stereo not drawn) | inactive: > 100 µM
CC(NCCN(C)C)C1CCC2C3CCc4cc(O)ccc4C3CCC12C (stereo not drawn) | inactive: 4.02 µM
Cc1cn(CCCCC2=NCCCN2)c(=O)[nH]c1=O | inactive: > 53.1 µM
CCOC(=O)C(=C=Cc1cccs1)C(=O)c1ccccc1 | inactive: 16.9 µM
CN(C)CC1(C)CC/C(=C\c2ccc3c(c2)OCO3)C1=O (stereo not drawn) | inactive: > 100 µM
C#C[C@]1(O)CC[C@H]2[C@@H]3CCC4=C/C(=N/OC(=O)c5cccc6c(=O)c7ccccc7[nH]c56)CCC4[C@H]3CC[C@@]21CC (stereo partly drawn) | inactive: 49.1 µM
NC(=O)Nc1n[nH]c(-c2ccccc2)n1 | inactive: > 100 µM
CC1CCC2(OC1)OC1CC3C4CCC5CC(O)CCC5(C)C4CC(=O)OC3(C)C1C2C (stereo not drawn) | inactive: > 100 µM
COc1ccc(/C=N/c2ccc(-c3nc4ccccc4[nH]3)cc2)cc1OC | inactive: > 100 µM
CC(=O)NC1C(OCc2ccccc2)OC(CO)C(O)C1OCC(=O)NC(C)C(=O)NC(CCC(=O)Nc1ccc2c(c1)CN1C(=O)c3ccccc3C1=N2)C(N)=O (stereo not drawn) | inactive: > 100 µM
Nc1ncc(Cc2ccc3c(c2)OCO3)c(N)n1 | inactive: > 100 µM
CCOC(=O)c1c(O)cn2c1[nH]c1cccc3cccc2c31 | inactive: > 100 µM
COc1cc(C(=O)O)c([N+](=O)[O-])c(OC)c1OC | inactive: 49.3 µM
Nc1nc(Cl)c2ncn(Cc3ccc(CCl)cc3)c2n1 | inactive: 21.2 µM
CCN(CC)C(=S)N/N=C/c1cc(OC)ccc1O | inactive: 5.41 µM
CN(C)N1C(=C(C#N)C#N)C(c2ccccc2)CC1C#N (stereo not drawn) | inactive: > 100 µM
CCC1CCc2c(c(=O)oc3c2cc(OC)c2cccc(OC)c23)C1 (stereo not drawn) | inactive: > 100 µM
COC(=O)CSC1CC(=O)c2c(Cl)sc(Cl)c21 (stereo not drawn) | inactive: > 100 µM
CCOC(=O)c1sc2c(c1OC(=O)c1cc(OC)c(OC)c(OC)c1)c(=O)n(-c1ccccc1)c(=S)n2-c1ccccc1 | inactive: > 100 µM
Cc1nc2cccc(F)c2c(=O)n1C1CCCCNC1=O (stereo not drawn) | inactive: > 10 µM
CCOC(=O)c1cn(-c2ccc([N+](=O)[O-])cc2)c(=S)n2c1nc1ccccc12 | inactive: 58.7 µM
NC(=O)C[S+]([O-])CC(N)C(=O)O (stereo not drawn) | inactive: > 100 µM
COC(=O)C1C2CCCN2OC1(C)CO (stereo not drawn) | inactive: > 100 µM
CC(C)=CC1C(COC(=O)c2ccccc2Cl)C1(C)C (stereo not drawn) | inactive: > 100 µM

Compound | GI50
COC(=O)c1ccc(Cc2cc(Cc3ccc(C(=O)OC)cc3)cc(Cc3ccc(C(=O)OC)cc3)c2)cc1 | inactive: > 25 µM
COC(=O)C1=C(C)NC2=C(C(=O)c3ccccc32)C1c1c[nH]nc1-c1ccccc1 (stereo not drawn) | inactive: 72.6 µM
CC1(C)COC2(OC1)C1=NS(=O)(=O)CC13CCC2C3(C)C (stereo not drawn) | inactive: > 100 µM
COc1ccc(-c2nc(N3CCCC3)no2)cc1 | inactive: 54.7 µM
N#C/C(=C/NC(N)=S)C(N)=O | inactive: > 100 µM
CC1(C)OCC(C2OC(C)(C)OC2[C@H]2O[C@@]3(O)[C@H]4[C@H](C=CC[C@@H]42)[C@@H](OCc2ccccc2)[C@H](OCc2ccccc2)[C@H]3OCc2ccccc2)O1 (stereo partly drawn) | inactive: 78.7 µM
Cc1cc(S(=O)(=O)Nc2nc(N)nc(N(C)C)n2)c(SCC(=O)O)cc1Cl | inactive: > 10 µM
COC(=O)C12CCC(CC1=O)C2(C)C (stereo not drawn) | inactive: > 100 µM
CCCCCCCCCc1cc(=O)c2c(O)cccc2o1 | inactive: > 100 µM
O=C1CCNC(=O)NC1 | inactive: > 100 µM
Cc1cccc(-c2cccc(COCc3cccc(-c4cccc(CO)n4)n3)n2)n1 | inactive: > 50 µM
Cc1ccc(C(=O)N/N=C2/C(=O)c3c4ccccc4cc4cccc2c34)cc1 | inactive: > 73.5 µM
O=C(OCc1ccccc1)N1c2cc([N+](=O)[O-])ccc2C(=O)N2CCC[C@H]2C1O (stereo partly drawn) | inactive: > 100 µM
CC(=O)N1C=Cc2c(c(C)c3c([nH]c4ccccc43)c2C)C1 | inactive: 7.41 µM
O=C(C/C=C/c1ccccc1)c1ccccc1 | inactive: > 100 µM
Cc1ccccc1NC(=O)C(=O)CC(=O)C1CCOC1=O (stereo not drawn) | inactive: > 100 µM
O=CN(O)CC(=O)O | inactive: > 100 µM
C(=C1/CCCCC([n+]2ccccc2)=N1)/c1ccccc1 | inactive: > 100 µM
Clc1ncnc(Cl)c1Cl | inactive: > 100 µM
O=C1SC(SCc2ccccc2)=NC12CC2c1ccccc1 (stereo not drawn) | inactive: 22.5 µM
c1ccc([C@H]2CN3CCSC3=N2)cc1 [LEVAMISOLE HYDROCHLORIDE] | inactive: > 100 µM
O=c1n(-c2ccccc2)c(=O)n2n1C1C=CC2C2C(C1)C2(Cl)Cl (stereo not drawn) | inactive: > 100 µM
CN(CC1NCCCC1O)C12CC3CC(CC(C3)C1)C2 (stereo not drawn) | inactive: > 100 µM
C/C(=N\N(C)C)c1sc(-n2nc(-c3ccccc3)cc2-c2ccccc2)nc1C | inactive: > 100 µM

Compound | GI50
CC(C)(C)OC(=O)NC(CSCc1ccc(C(=O)c2ccccc2)cc1)C(=O)N1CCN(CCCCN2c3ccccc3Sc3cc(N=[N+]=[N-])ccc32)CC1 (stereo not drawn) | inactive: > 100 µM
CN(C)CCNc1ncnc2[nH]c(-c3ccc4ccccc4c3)nc12 | inactive: > 100 µM
Cc1c(C)c2c(c(N)c1C#N)C(=O)N(O)C2=O | inactive: > 100 µM
CC(CC(C#N)(c1ccccc1)c1ccccc1)N1CCCCC1 (stereo not drawn) | inactive: 34.1 µM
CCOC(=O)CCNC(=O)c1cc(C)cc2c1Oc1c(cc(C)cc1C(=O)NCCC(=O)OCC)S2 | inactive: > 100 µM
CCCCCCCCCc1cc(O)c(O)cc1CCCCCCCCC | inactive: > 10 µM
CN(C)S(=O)(=O)n1ccnc1 | inactive: > 100 µM
COc1cc2c3c4[n+](cc2c(OC)c1OC)CCC4CCC3 (stereo not drawn) | inactive: > 100 µM
N=C1N(S(=O)(=O)c2ccccc2)[C@@H](Cc2ccccc2)[C@H](c2ccccc2)C1(c1ccccc1)c1ccccc1 | inactive: > 100 µM
O=C1C[C@@H](c2ccccc2)O[C@@H](c2ccccc2)C1 | inactive: > 100 µM
COc1ccc([C@@]23OC[C@@H]4[C@@H](OC[C@@H]42)c2cc(OC)c(OC)cc23)cc1OC | inactive: > 100 µM
O=C1NC2OC(C(O)CO)C(O)C2O1 (stereo not drawn) | inactive: > 100 µM
COC(=O)C(Cc1ccc([N+](=O)[O-])cc1)NC(=O)C(CC(=O)OC(C)(C)C)NC(=O)OC(C)(C)C (stereo not drawn) (Boc-Asp(OtBu)-[Phe(4-NO2)]-OMe; configuration not given here) | inactive: > 100 µM
C=CCN(c1cc(O)c2c(c(C)cn2S(=O)(=O)c2ccccc2)c1[N+](=O)[O-])S(C)(=O)=O | inactive: > 100 µM
O=c1[nH]c2cc([N+](=O)[O-])c(N/N=C/c3ccc(Cl)cc3Cl)c([N+](=O)[O-])c2[nH]1 | inactive: 21.4 µM
C/C(=C\CBr)CCC(Br)C(C)(C)Br (stereo not drawn) | inactive: > 100 µM
N#CCCN(CCC#N)c1ccc(C(=O)NN)cc1 | inactive: > 100 µM
O=C1CCc2ccc(O)c(c2)Oc2ccc(cc2)[C@@H]2O[C@@H]2CO1 | inactive: 71.4 µM
COC(=O)/C=C(C)/C=C/c1cc(C(C)=O)c(C)o1 | inactive: > 100 µM
C[Si](C)(C)C1=C([Si](C)(C)C)C(Cl)(Cl)C1=O | inactive: 13.9 µM
O=C(Nc1ccc(Cl)c(Cl)c1)C(=O)C(C(=O)c1ccccc1F)C1OC(=O)c2ccccc21 (stereo not drawn) | inactive: 24.6 µM
COC(=O)c1ccc(CCc2cc(O)c(Br)cc2O)cc1 | inactive: 11.6 µM
Cc1ccc([N+](=O)[O-])cc1NC(=O)C(=O)C1CCC2=C(Sc3ccccc3N2)C1=O (stereo not drawn) | inactive: > 100 µM
CC(=O)c1c(SCCN2CCOCC2)n(-c2ccccc2)c(=S)n(-c2ccccc2)c1=O | inactive: 36.8 µM

Compound | GI50
COCOc1cc(OC)c(Br)cc1C/C(=N/O)C(=O)OC | inactive: > 100 µM
O=C(O)[C@@H]1CCC(=O)N1C(c1ccc2c(c1)OCO2)c1ccc2c(c1)OCO2 | inactive: > 100 µM
COc1ccccc1Nc1nc(N)nc(N)c1N=O | inactive: > 100 µM
COc1cc2c(cc1OC)C(=O)/C(=C/c1ccc([N+](=O)[O-])cc1)CC2 | inactive: > 10 µM
Cc1ccc(C(=O)O)cc1NC(=O)c1cc(/C=C/c2ccccc2)[nH]c(=S)n1 | inactive: > 100 µM
CN(C)CC1COC2Cc3ccccc3C1O2 (stereo not drawn) | inactive: > 100 µM
Cc1cc2ccc(N)nc2nc1O | inactive: > 100 µM
Cc1ccc([N+](=O)[O-])c2c(NCCCN(C)C)ccnc12 | inactive: > 100 µM
CCOC(C[C@H](O)[C@H]1COC(=S)S1)OCC | inactive: > 100 µM
O=C(/C=C/c1ccc(O)c(O)c1)NCCc1ccc(-c2ccccc2)cc1 | inactive: 14 µM
O=C1CN2C(c3ccccc3)=NN(c3ccc([N+](=O)[O-])cc3)C2(c2ccccc2)c2cc(Cl)ccc2N1CC1CC1 (stereo not drawn) | inactive: > 100 µM
COc1ccc2[nH]c(S(=O)(=O)N3CC(CCl)c4ccc(N)cc43)cc2c1 (stereo not drawn) | active: 0.379 µM
O=C(O)Cn1ccc(=O)c2c([N+](=O)[O-])cccc21 | inactive: > 100 µM
CCc1c(C)c(C#N)c(=S)n(C2OC(COC(C)=O)C(OC(C)=O)C(OC(C)=O)C2OC(C)=O)c1C (stereo not drawn) | inactive: > 100 µM
CC(=O)NNc1nc(C)c(C(/C=C/c2ccc3c(c2)OCO3)=N/Nc2ccccc2)s1 | inactive: > 100 µM
CCOC(=O)C(C)NC(=O)C(C)NC(=O)C(C)NC(=O)C(C)NC(=O)C(C)NC(=O)OCc1ccccc1 (stereo not drawn) | inactive: > 100 µM
Cc1ccc(S(=O)(=O)NC(=O)NC(CO)C(=O)O)cc1 (stereo not drawn) | inactive: > 100 µM
CCOc1ccccc1Nc1nc(C)c(C(=O)CC(=O)C(=O)Nc2ccccc2)s1 | inactive: > 100 µM
O=S(=O)(c1ccccc1)N1CCN(S(=O)(=O)c2ccccc2)c2ccccc21 | inactive: > 100 µM
CN(c1ccccc1)c1c(-c2ccccc2)c(=O)oc2c1ccc1occc12 | inactive: > 100 µM
CO[C@](C(=O)OC[C@H]1[C@@H](COC(C)=O)[C@@H]2O[C@H]1c1cc3c(cc12)OCO3)(c1ccccc1)C(F)(F)F | inactive: 67.1 µM

Counter-ions that a name gives are not always drawn.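 96-well plates; 48 h exposure; 5 concentrations. Endpoints by linear interpolation between flanking doses. Not reached: highest tested concentration assigned. GI50: concentration for 50% inhibition of growth.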 Calls of active or inactive are those of the source. Rule as the data show it: active = GI50 up to about 1.1 µM and inactive = higher. Square brackets hold non-standard residues; d marks the D form. Peptide text beside a SMILES is read from it. * marks the point of attachment. Phe(4-NO2) = N[CH](Cc1ccc([N+](=O)[O-])cc1)C(=O)O; Boc = CC(C)(C)OC(=O)*; OtBu = CC(C)(C)O*
